# In PubChem BioAssay AID504332 (National Center for Advancing Translational Sciences (NCATS), 2011):
# Hit rate of the full screen: of about 350,000 compounds, about 31,000 (8.9%) were called active. This list was built around the results that the source calls inconclusive (neither active nor inactive); the mix of calls is not that of the screen. Calls come from the whole dose curve; as a rule, active = well fitted inhibition curve with a large enough effect; inconclusive = small, poorly fitted or top-dose-only effect; inactive = no such curve, though single readings can be large or run the other way. Where the call is inconclusive, the potency comes from a doubtful curve fit.
# Biological target: Histone-lysine N-methyltransferase EHMT2 (Homo sapiens) (UniProt Q96KQ7)
# Test: qHTS Assay for Inhibitors of Histone Lysine Methyltransferase G9a; note: nearly all actives have a fitted effect of over 75% in size
# Conditions: G9a H3K9 monomethylation, AlphaScreen, 2 h; activity, negative = inhibition: at 59 µM (top of the series) unless noted
# Outline: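 Quantitative HTS format: methyltransferase activity on a biotin-tagged H3K9 peptide is measured by AlphaScreen, using a rabbit anti-monomethyl-H3K9 antibody with streptavidin donor and anti-IgG acceptor beads. Final levels are 20 nM enzyme, 500 nM peptide, 20 uM SAM; 2 h RT.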
# % is set by controls: 0 for no effect and ±100 for the full control effect; potency is the fitted concentration of half-maximal effect; tags give direction and shape of the fitted curve.
# Sequence of UniProt Q96KQ7 (Q96KQ7 whole entry, looked up): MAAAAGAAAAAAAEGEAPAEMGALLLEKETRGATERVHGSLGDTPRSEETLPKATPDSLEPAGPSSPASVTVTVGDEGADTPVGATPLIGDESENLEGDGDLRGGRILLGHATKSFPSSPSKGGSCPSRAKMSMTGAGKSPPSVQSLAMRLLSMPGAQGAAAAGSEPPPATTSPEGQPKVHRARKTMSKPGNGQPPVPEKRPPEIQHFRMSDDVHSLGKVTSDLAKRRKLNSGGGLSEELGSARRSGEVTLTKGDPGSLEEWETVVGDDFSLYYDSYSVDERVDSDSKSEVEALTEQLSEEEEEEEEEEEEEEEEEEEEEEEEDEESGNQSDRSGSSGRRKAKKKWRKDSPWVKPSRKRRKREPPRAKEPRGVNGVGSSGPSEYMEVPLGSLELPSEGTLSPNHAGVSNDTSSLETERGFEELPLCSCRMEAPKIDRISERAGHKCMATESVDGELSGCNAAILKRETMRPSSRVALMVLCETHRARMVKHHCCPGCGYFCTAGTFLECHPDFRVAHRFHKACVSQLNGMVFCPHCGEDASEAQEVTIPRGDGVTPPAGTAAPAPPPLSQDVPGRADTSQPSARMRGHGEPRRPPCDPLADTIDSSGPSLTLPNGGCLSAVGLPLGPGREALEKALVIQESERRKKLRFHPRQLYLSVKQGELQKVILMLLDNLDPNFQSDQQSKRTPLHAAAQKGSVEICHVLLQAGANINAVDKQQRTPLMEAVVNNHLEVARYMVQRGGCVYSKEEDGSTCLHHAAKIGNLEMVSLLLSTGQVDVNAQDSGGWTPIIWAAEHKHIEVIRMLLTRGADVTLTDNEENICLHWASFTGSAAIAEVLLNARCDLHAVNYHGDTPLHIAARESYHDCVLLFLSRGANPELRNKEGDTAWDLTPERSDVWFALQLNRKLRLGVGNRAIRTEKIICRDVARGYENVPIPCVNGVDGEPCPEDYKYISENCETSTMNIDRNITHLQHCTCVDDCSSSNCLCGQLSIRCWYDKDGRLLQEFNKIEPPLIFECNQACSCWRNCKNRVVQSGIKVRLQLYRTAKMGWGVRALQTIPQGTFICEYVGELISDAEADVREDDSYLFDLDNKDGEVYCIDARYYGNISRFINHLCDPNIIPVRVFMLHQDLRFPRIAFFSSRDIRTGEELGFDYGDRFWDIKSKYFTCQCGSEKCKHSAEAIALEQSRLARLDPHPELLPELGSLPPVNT
Structure (SMILES),Potency,"activity, negative = inhibition"
CSc1cc(C)nc(N(C)C(C)=O)n1,"inconclusive: 79.4 µM [inhibitor, single point]",–
CCOc1cccc(/C=N/NC(=S)Nc2ccccc2[N+](=O)[O-])c1O,inactive,–
CCOc1ccc(OCCC(=O)OCC(=O)Nc2cc(OCC)c(N3CCOCC3)cc2OCC)cc1,active: 35.5 µM,–
Cc1ccc(-n2cc(C(=O)O)c(=O)cc2C)c(C)c1,active: 50.1 µM,–
CNC(=S)NNC(=O)c1ccc(N(C)C)cc1,inactive,–
COc1ccc(C(CNC(=O)C(=O)NC2CCCC2)N2CCN(C)CC2)cc1 (configuration not stated),"inconclusive: 8.91 µM [inhibitor, partial curve, poor fit]",–
COc1ccc(OC)c(NC(=O)c2cccc(Cn3cc(Br)c([N+](=O)[O-])n3)c2)c1,active: 2.51 µM,–
COc1ccc(-c2nc3cnc(OCc4ccccc4)nc3n(CCC#N)c2=O)cc1,–,inactive: 9.42% [at 0.501 µM]
COc1cccc(NC(=O)CN(Cc2ccccc2)S(=O)(=O)c2ccc3nc(C)sc3c2)c1,inactive,–
COc1ccc(/C=C/C(=O)c2cc(Br)ccc(=O)c2O)cc1,active: 10 µM,–
Cc1cccc(C)c1NC(=O)COC(=O)c1cc(=O)c2ccccc2o1,"inconclusive: 70.8 µM [inhibitor, partial curve, poor fit]",–
COc1ccc(NC(=S)NCC2CCCO2)c(C)c1 (configuration not stated),inactive,–
CCCc1cc(N2CCN(C(=O)c3ccco3)CC2)n2c(nc3ccccc32)c1C#N,active: 15.8 µM,–
Cc1ccnc(NC(=O)c2cc(S(=O)(=O)N3CCCCC3)ccc2Cl)c1,"inconclusive: 89.1 µM [inhibitor, single point]",–
S=c1[nH]nc(-c2ccco2)n1/N=C/c1ccc(Cl)cc1Cl,"inconclusive: 0.631 µM [inhibitor, partial curve, poor fit]",–
S=C(NCCc1ccccc1)NC1CC2CCC(C1)N2Cc1ccccc1 (configuration not stated),"inconclusive: 39.8 µM [inhibitor, partial curve, poor fit]",–
Cc1ccc2nc(NC(=O)CSc3nc(=O)n(CCCN(C)C)c4c3CCC4)sc2c1,active: 39.8 µM,–
CCC(=O)Oc1ccc(-c2cnc3ccccc3n2)cc1,inactive,–
CN1C(=O)SC(Nc2ccccc2)C1=O (configuration not stated),inactive,–
CN(CC(=O)Nc1ccc(N2CCOCC2)cc1)Cc1cc(=O)n2ccsc2n1,"inconclusive: 31.6 µM [inhibitor, partial curve]",–
CCOc1ccc(CNCc2c(C(=O)O)c(C)n(Cc3ccc(F)cc3Cl)c2C)cc1,inactive,–
O=C(NCc1ccco1)c1nn(-c2ccccc2)c(=O)c2ccccc12,"inconclusive: 89.1 µM [inhibitor, single point]",–
